Results on 87 compounds are retold here after PMC4336329 (PLoS ONE, 2015).

About 14,000 (4.5%) of roughly 310,000 compounds showed an effect of 50% or more. The effect is printed as a negative number. This is one part of the list. Where a SMILES comes first, the peptide text is derived from it. The star is where a group is joined. Cbz = O=C(OCc1ccccc1)*
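Also: peak tail current of the secondary pulse compared with the same well before compound.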

The test deals with human ether-à-go-go-related gene (hERG) potassium channel (human, UniProt Q12809). The test is described as follows: primary screen, population patch clamp on CHO cells stably expressing hERG.
Chain of human ether-à-go-go-related gene (hERG) potassium channel (Q12809 whole entry, looked up): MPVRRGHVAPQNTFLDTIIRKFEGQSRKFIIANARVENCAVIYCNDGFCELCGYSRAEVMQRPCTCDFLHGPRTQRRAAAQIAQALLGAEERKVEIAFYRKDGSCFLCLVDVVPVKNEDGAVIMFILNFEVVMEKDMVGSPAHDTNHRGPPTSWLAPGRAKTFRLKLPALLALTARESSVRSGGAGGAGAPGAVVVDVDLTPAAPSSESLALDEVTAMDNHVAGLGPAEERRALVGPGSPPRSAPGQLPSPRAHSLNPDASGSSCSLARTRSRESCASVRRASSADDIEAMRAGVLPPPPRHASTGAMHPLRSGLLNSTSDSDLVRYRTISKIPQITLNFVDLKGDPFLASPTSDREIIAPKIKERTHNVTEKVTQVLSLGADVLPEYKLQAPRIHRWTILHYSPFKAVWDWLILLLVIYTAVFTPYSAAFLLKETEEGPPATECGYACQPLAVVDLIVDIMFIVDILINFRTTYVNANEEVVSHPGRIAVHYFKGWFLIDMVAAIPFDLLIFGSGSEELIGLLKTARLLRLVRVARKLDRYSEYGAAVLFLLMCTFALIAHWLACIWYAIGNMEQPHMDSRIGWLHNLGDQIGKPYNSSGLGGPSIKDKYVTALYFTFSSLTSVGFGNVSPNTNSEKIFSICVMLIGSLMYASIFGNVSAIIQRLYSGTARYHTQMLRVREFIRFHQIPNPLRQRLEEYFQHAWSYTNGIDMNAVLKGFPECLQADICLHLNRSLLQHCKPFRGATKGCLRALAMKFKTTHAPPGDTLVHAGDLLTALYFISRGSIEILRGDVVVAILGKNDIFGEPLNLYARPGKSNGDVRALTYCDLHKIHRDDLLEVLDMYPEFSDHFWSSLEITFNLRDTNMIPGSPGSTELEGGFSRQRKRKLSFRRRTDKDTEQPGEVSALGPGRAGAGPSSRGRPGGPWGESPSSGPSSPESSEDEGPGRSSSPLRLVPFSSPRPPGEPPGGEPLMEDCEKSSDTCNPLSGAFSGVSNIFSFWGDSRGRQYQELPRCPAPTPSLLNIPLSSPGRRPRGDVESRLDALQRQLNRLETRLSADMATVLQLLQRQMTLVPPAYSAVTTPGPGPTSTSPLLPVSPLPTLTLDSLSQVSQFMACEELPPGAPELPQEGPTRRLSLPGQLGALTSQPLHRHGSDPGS
Consider `CCOC(=O)CSC1=N/C(=C\c2cc(OC)c(OC)c(OC)c2)C(=O)N1C`, for which the “hERG current change (%, negative = inhibition) at 10uM” value is reported as -7.36%.
With `Cc1ccc(C(=O)Nc2ccc(N3CCN(C(=O)c4ccco4)CC3)cc2)c(Cl)c1` the figure was -16%; with `O=C(Cn1nc(-c2ccccc2)ccc1=O)NCC1CCCO1` (stereo not drawn), -9.54%.
In the case of `COC(=O)CCC(NC(=O)OCc1ccccc1)C(=O)NC(CC(C)C)C(=O)OC` (stereo not drawn) (Cbz-Glu(OMe)-Leu-OMe; configuration not given here), the “hERG current change (%, negative = inhibition) at 10uM” value is -3.04%.
On to `Cc1ccc(C(=O)OCC(=O)Nc2ccccc2)cc1NC(=O)c1ccco1`, for which the “hERG current change (%, negative = inhibition) at 10uM” value is -4.37%.
Regarding `Cc1nc2ccccc2cc1C(=O)N/N=C/c1cccs1`, the “hERG current change (%, negative = inhibition) at 10uM” value is given as -6.93%.
In the case of `Cc1ccc(NC(=O)CN2C(=O)CCSc3ccc(S(=O)(=O)N4CCCC4)cc32)cc1C`, the “hERG current change (%, negative = inhibition) at 10uM” value came out at 13.3%.
For the compound `CC(NC(=O)c1ccccc1)C(=O)OCC(=O)c1ccc(Br)cc1` (stereo not drawn), the “hERG current change (%, negative = inhibition) at 10uM” value was -4.63%.
As for `C=C1Cn2c(nnc2-c2ccc(Cl)cc2)S1`, the “hERG current change (%, negative = inhibition) at 10uM” value is reported as -27.4%.
With `COc1ccc2c3c1OC1CC(O)C=CC31CCN(C)C2` (stereo not drawn) the figure was 5.9%; with `Cc1cc(C)c2c(=O)[nH]n(C(C)C)c2n1`, 7.27%; with `O=C(NCc1ccc2c(c1)OCO2)C12CN(Cc3ccccc3)CC1C(c1cccc([N+](=O)[O-])c1)=NO2` (stereo not drawn), 12.2%.
As for `O=c1c(S(=O)(=O)c2ccc(Cl)cc2)cn(Cc2cccc(F)c2)c2ccc(F)cc12`, the “hERG current change (%, negative = inhibition) at 10uM” value is on record as -43.7%.
To `CCn1cc(CN2CCCC(C(=O)Nc3ccc(-c4cscn4)cc3)C2)cn1` (stereo not drawn) belongs 0.185%; to `O=S(=O)(c1ccc(F)cc1)N1CCN(C(=S)NCCc2ccccc2)CC1`, 1.47%.
As to `O=C(N/N=C\c1ccc([N+](=O)[O-])o1)c1cncc(Br)c1`, the “hERG current change (%, negative = inhibition) at 10uM” value is -36.7%.
With `C=C(C)c1cccc(C(C)(C)NC(=O)N2CCN(c3ccccc3OC)CC2)c1` the figure was 4.28%.
As for `CCOC(=O)c1nc(C)nc(Sc2n[nH]c(-c3cc(Cl)cc(Cl)c3)n2)c1C`, the “hERG current change (%, negative = inhibition) at 10uM” value worked out at 4.12%.
To `O=C1CCc2cc(NS(=O)(=O)c3ccccc3)cc3c2N1CCC3` belongs 14.1%.
In the case of `Cc1ccc(CN(C)C(=O)C2CCC(=O)N(C3CCCCCC3)C2)cc1` (stereo not drawn), the “hERG current change (%, negative = inhibition) at 10uM” value worked out at 7.71%.
With `CC1=N/C(=C/c2cccnc2)C(=O)O1` the figure was 14.8%.
As to `COc1ccc(Cn2cccc(NC(=O)Nc3ccc(F)cc3)c2=O)cc1`, the “hERG current change (%, negative = inhibition) at 10uM” value is reported as 28.6%.
With `O=C(NCC(O)COc1ccc([N+](=O)[O-])cc1)c1ccccc1` (stereo not drawn) the figure was -40.4%; with `COc1cc2c(cc1OC)C(c1cccs1)CC(=O)N2` (stereo not drawn), 8.51%; with `O=C(Nc1ccccc1)C1CCCN1C(=O)NCc1ccccc1` (stereo not drawn), 10%.
For `CCCCC(=O)NC(=S)NNS(=O)(=O)c1ccccc1`, the “hERG current change (%, negative = inhibition) at 10uM” value is given as -13.3%.
To `COc1ccc(S(=O)(=O)N/N=C(/C)c2ccncc2)cc1OC` belongs -1.27%.
To `C/C(=N\NC(=O)c1cc2c(s1)CCC(C)C2)c1ccncc1` (stereo not drawn) belongs 2.24%.
To `CCCCNC(=O)Nc1nnc(SCC(=O)OCC)s1` belongs -91.2%; to `Cn1cncc1COC(=O)c1ccc(Cl)cc1`, 5.21%.
As for `O=C1C=Cc2ccccc2C1=O`, the “hERG current change (%, negative = inhibition) at 10uM” value worked out at 12.8%.
To `CCCCC(CCC(=O)Nc1cccc([N+](=O)[O-])c1)C(=O)O` (stereo not drawn) belongs 10.3%; to `O=C(c1ccccc1[N+](=O)[O-])N1CCN(Cc2ccc3c(c2)OCO3)CC1`, -13.4%.
To `COc1cc(NC(=O)Nc2ccc(Cl)c(Cl)c2)c(C(=O)O)cc1OC` belongs -5.57%; to `Nc1ccc2nc(-c3ccc(-c4nc5ccc(N)cc5[nH]4)cc3)[nH]c2c1`, 7.64%.
With `O=C(Oc1coc(CSc2nnc(NC(=O)C3CC3)s2)cc1=O)c1ccccc1` the figure was 4.94%.
`O=C(COc1ccc2c3c(c(=O)oc2c1)CCC3)N1CCCC1`: the “hERG current change (%, negative = inhibition) at 10uM” value is listed as 12.4%.
To `CCCCNC(=S)N1CCn2cccc2C1c1cccnc1` (stereo not drawn) belongs -25.9%; to `COCCn1c(=O)[nH]c2cc(C(=O)N3CCN(c4ccccc4F)CC3)ccc2c1=O`, 3.07%.
As for `Cl.Clc1cccc(-c2ccc(CNCCCN3CCOCC3)o2)c1`, the “hERG current change (%, negative = inhibition) at 10uM” value was -58.3%.
As to `Cc1oc(-c2ccc(-c3ccccc3)cc2)nc1CN1CCN(CC(=O)N(C)C)CC1`, the “hERG current change (%, negative = inhibition) at 10uM” value is -53%.
Take `Cc1cccc(C)c1OCc1nnc(SCC(=O)NCCc2ccccc2)o1`: the “hERG current change (%, negative = inhibition) at 10uM” value was -16.5%.
Turning to `NNC(=O)Cn1nnc(-c2ccc(C(F)(F)F)cc2)n1`, the “hERG current change (%, negative = inhibition) at 10uM” value amounted to 14.6%.
To `Cc1ccccc1NC(=O)Cn1c(=O)n(-c2ccc(CC(=O)NCC3CCCO3)cc2)c(=O)c2ccccc21` (stereo not drawn) belongs 0.402%; to `COc1cc(S(=O)(=O)NC2CCCCC2C)ccc1F` (stereo not drawn), -32.6%; to `CC(C)Oc1ccccc1C1CC(=O)Nc2c1c(=O)n(C)c(=O)n2C` (stereo not drawn), 14%.
With `Nc1nc(SCc2ccc(Br)cc2)n[nH]1` the figure was 22.1%.
Regarding `O=C(NCc1ccccc1)c1onc(CSc2ccccc2)c1C(=O)NCc1ccccc1`, the “hERG current change (%, negative = inhibition) at 10uM” value is listed as 13.3%.
To `CC(=O)N1CC(C)Oc2ccc(S(=O)(=O)NC(CC(=O)O)c3ccccc3C)cc21` (stereo not drawn) belongs 21.4%; to `CC(=O)N1CCCc2cc(S(=O)(=O)Nc3cccc(C)c3C)ccc21`, 3.41%; to `O=C(CC1NCCNC1=O)OCCCc1ccccc1` (stereo not drawn), -21.5%.
On to `Cc1ccc(S(=O)(=O)N(C)CC(=O)N/N=C/c2ccc(C)o2)cc1`, for which the “hERG current change (%, negative = inhibition) at 10uM” value is given as -24.8%.
For the compound `COc1ccc(C(=O)C2CCCN(C(=O)Cc3c(C)noc3C)C2)cc1OC` (stereo not drawn), the “hERG current change (%, negative = inhibition) at 10uM” value was -3.81%.
With `Cc1ccc(-c2nn(-c3ccccc3)cc2C2CC(c3ccccc3)=NN2C(=O)CCC(=O)O)cc1` (stereo not drawn) the figure was -7.08%; with `COC(=O)CSc1nnc(-c2ccccc2O)n1-c1ccc(C)cc1`, -4.35%.
`Cc1ccccc1/C=C/C(=O)c1ccc([N+](=O)[O-])o1`: the “hERG current change (%, negative = inhibition) at 10uM” value amounted to 0.656%.
To `COc1ccc(Cn2c(-c3ccco3)nc3c(c(=O)c4ccccc4n3C)c2=O)cc1` belongs -35.3%; to `CC1(c2ccccc2)CC(c2ccccc2)=Nc2ccccc2N1` (stereo not drawn), 11.4%; to `CN(C)CCCNS(=O)(=O)c1cc(Cl)c(Cl)cc1Cl`, -27.8%.
To `CCC(C)NS(=O)(=O)c1ccc(NC(=O)c2cccs2)cc1` (stereo not drawn) belongs 7.51%; to `CCc1nc(N)c(C#N)c(-c2ccc(O)c(OC)c2)c1C`, 4.46%.
To `Cn1c(=O)c2c(SCC(=O)N3CCN(c4ccccc4)CC3)nc(C3CC3)nc2n(C)c1=O` belongs -19.4%; to `C=CCN(C(=O)CSC1=NC(=O)CN1C(C)=O)c1nc(C)c(-c2ccccc2)s1`, -4.4%; to `COc1ccc(NS(=O)(=O)c2ccc3nc(COc4ccc5ccccc5c4)[nH]c3c2)cc1`, 20.8%.
With `Cc1ccc(-c2cc(C(=O)N/N=C/C(Br)=C/c3ccccc3)n[nH]2)o1`, the “hERG current change (%, negative = inhibition) at 10uM” value is recorded as 12.7%.
With `CCOc1ccc(N2CC(C(=O)NCCc3c[nH]c4ccc(OC)cc34)CC2=O)cc1` (stereo not drawn) the figure was -35.8%; with `COC(=O)C(NC(C)=O)(Nc1nc(C)cs1)C(F)(F)F` (stereo not drawn), 4.77%.
With `CC1Oc2cc3oc4c(O)c5c(cc4c(=O)c3c(O)c2C1(C)C)C=CC(C)(C)O5` (stereo not drawn) the figure was -1.17%.
On to `COc1ccc(-n2ccsc2=S)cc1`, for which the “hERG current change (%, negative = inhibition) at 10uM” value is -3.38%.
With `COc1ccc(C)cc1NC(=O)C(=O)N1CCCC1` the figure was 19.2%; with `Cc1ccc(CNC(=O)CC(NC(=O)c2ccccc2)c2ccccc2)cc1` (stereo not drawn), -13.2%; with `CCOc1ccc2nc(NC(=O)/C=C/c3ccc4c(c3)OCO4)sc2c1`, 14.9%.
With `CNC(=S)N(Cc1ccco1)Cc1cc2cc(OC)c(OC)cc2[nH]c1=O` the figure was -29.9%; with `COc1ccc(-c2nc(N3CCOCC3)nc3n[nH]c(N)c23)cc1`, -7.86%.
With `CN(C)/C=N/NC(=O)c1ccc(Cl)cc1` the figure was 13.4%; with `CCOc1ccc(-n2c(SCC(=O)NCc3ccco3)nc3ccccc3c2=O)cc1`, 18.8%; with `Cc1ccc(S(=O)(=O)N2[C@@H](c3ccccc3)C(C(=O)O)=CC[C@H]2c2ccc3c(c2)OCO3)cc1`, 9.21%.
Consider `CCN1CCN(S(=O)(=O)c2ccc(Cl)c(C(=O)NCCc3ccccc3)c2)CC1`, for which the “hERG current change (%, negative = inhibition) at 10uM” value is on record as -4.31%.
To `O=C(/C=C/c1ccc(Cl)cc1)NCCSc1ccccc1` belongs -7.28%.
With `COc1ccc2nc(/N=C/c3c(C)[nH]n(-c4ccc(C)cc4C)c3=O)sc2c1` the figure was 8.94%.
Turning to `COc1ccc(C=O)cc1CN1CCCN(Cc2ccccc2F)S1(=O)=O`, the “hERG current change (%, negative = inhibition) at 10uM” value is -3.87%.
Consider `CCOC(=O)c1c(C)oc2c1c1c(c3ccccc32)OCN(CCCC(=O)O)C1`, for which the “hERG current change (%, negative = inhibition) at 10uM” value was -3.96%.
Turning to `CCNS(=O)(=O)c1ccc(Br)c(C(=O)OC(C)C(=O)NCC2CCCCC2)c1` (stereo not drawn), the “hERG current change (%, negative = inhibition) at 10uM” value is reported as -16.5%.
To `COc1ccccc1NC(=O)CSc1nc(N)cc(N)n1` belongs -3.66%.
`Cc1ccc(C)c(NC(=O)c2ccccn2)c1`: the “hERG current change (%, negative = inhibition) at 10uM” value is recorded as -10.7%.
To `CN(CCc1cn[nH]c1)Cc1nc(Cc2ccccc2)no1` belongs 7.12%; to `Cc1cccc(NC(=O)C2(c3ccccc3)CCOCC2)c1`, 15.5%.
